Over roughly 33,000 sequences, “E-score (-0.5 to 0.5)” has its median near -0.043; the highest 2% begin near 0.37. This is one part of the list.

This assay addresses T1, Upc2 (UniProt Q12151).
T1 sequence: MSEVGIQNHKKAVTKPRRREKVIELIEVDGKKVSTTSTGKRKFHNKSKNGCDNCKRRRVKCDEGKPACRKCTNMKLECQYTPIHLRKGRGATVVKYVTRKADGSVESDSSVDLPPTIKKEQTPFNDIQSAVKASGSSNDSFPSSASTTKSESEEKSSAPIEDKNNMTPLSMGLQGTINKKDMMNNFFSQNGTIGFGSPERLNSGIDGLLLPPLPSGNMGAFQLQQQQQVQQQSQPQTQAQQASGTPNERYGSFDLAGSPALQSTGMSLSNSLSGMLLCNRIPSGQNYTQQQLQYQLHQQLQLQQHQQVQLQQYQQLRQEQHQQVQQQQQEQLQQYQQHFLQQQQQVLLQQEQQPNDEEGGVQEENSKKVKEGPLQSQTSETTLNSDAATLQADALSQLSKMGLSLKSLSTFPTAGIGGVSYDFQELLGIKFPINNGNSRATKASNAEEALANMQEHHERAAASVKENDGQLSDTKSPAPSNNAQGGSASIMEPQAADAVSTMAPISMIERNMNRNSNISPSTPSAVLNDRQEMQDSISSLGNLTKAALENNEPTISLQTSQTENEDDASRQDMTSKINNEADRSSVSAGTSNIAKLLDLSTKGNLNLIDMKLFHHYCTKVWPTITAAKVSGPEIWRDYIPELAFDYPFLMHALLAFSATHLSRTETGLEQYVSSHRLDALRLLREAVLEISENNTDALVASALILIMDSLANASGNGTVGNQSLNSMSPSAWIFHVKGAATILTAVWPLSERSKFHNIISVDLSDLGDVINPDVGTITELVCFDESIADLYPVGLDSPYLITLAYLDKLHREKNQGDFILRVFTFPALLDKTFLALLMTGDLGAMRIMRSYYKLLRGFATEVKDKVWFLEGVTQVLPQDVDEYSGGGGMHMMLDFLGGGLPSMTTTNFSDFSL
Description: PBM E-score (8-mer binding enrichment) (E-score (-0.5 to 0.5)); higher = stronger / more preferred TF binding; most listed sequences are background and not binding sites. The following applies: protein concentration: 200 nM; construct: GST-full length. The method in brief: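 For each ungapped eight-base word taken together with its reverse complement, the Universal PBM Analysis Suite assigned an E-score. Binding data came from GST-tagged yeast transcription factors, applied at about 100-200 nM, on universal all-10-mer Agilent arrays made double-stranded by primer extension. Fluorescent anti-GST marked bound protein, and scans were normalised with masliner.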
Turning to AACGAGTG, the “PBM E-score” value amounted to 0.414.
As for TAACAGGA, the figure is 0.0963; as for ATACTCCG, -0.0259; as for GCCGATAC, 0.114.
As for CGAAATGC, the figure is 0.14.
As for CACGCATC, the figure is 0.179.
As for GCTAGTGA, the “PBM E-score” value was -0.115.
As for CCGGTTAG, the figure is 0.0696; as for CGGCGCAG, 0.014.
On to ACCCTCAT, for which the “PBM E-score” value is -0.103.
Regarding AGTACCAC, the “PBM E-score” value was -0.0837.
As to CTCCAAGA, the “PBM E-score” value is -0.214.
Turning to CTGGAGTC, the “PBM E-score” value was -0.104.
Consider CTACCGAA, for which the “PBM E-score” value is -0.0797.
On to CGCCTAAC, for which the “PBM E-score” value was found to be 0.0674.
For the sequence CAACAATA, the “PBM E-score” value was -0.0351.
ACCCCCCT: the “PBM E-score” value is -0.151.
As for TACTGTCA, the figure is -0.0273; as for AGGATTCA, -0.176; as for AATTGCGC, 0.0799.
For the sequence CATGGTAA, the “PBM E-score” value came out at 0.0436.
As for ACGTATAC, the figure is 0.445.
CTTTCCAC: the “PBM E-score” value was -0.0832.
As for GGCTAGTA, the “PBM E-score” value was -0.0657.
With AGTTAGGA, the “PBM E-score” value is -0.198.
As for ACTTCCCG, the figure is 0.0138.
Turning to ACCCTCGT, the “PBM E-score” value turned out to be 0.419.
Take CGTGGGCA: the “PBM E-score” value is -0.329.
For the sequence CGTATCGA, the “PBM E-score” value was found to be 0.317.
In the case of AACATTGA, the “PBM E-score” value is -0.00731.
With CCACTCGA, the “PBM E-score” value is -0.013.
As for CGTGAGAA, the figure is -0.0165; as for CGCGGGAC, -0.105; as for CATGGCAC, -0.112.
As for CACTTCCG, the “PBM E-score” value is -0.327.
As for AGGAATGA, the figure is -0.148.
As for GTGCGACA, the “PBM E-score” value was determined as 0.106.
For the sequence AGTTAGTC, the “PBM E-score” value was -0.117.
For the sequence ACGCAAGT, the “PBM E-score” value was -0.0711.
Regarding AAAGGCGC, the “PBM E-score” value is 0.123.
As for TCAAGTCA, the figure is -0.214; as for AACCAGGC, -0.0684; as for TCGTGAGA, 0.0253.
CTCGCACC: the “PBM E-score” value worked out at 0.131.
Turning to ACGTTTTC, the “PBM E-score” value worked out at 0.164.
As to GTCTGAAC, the “PBM E-score” value was determined as 0.141.
As for AAGAATTC, the “PBM E-score” value is -0.0268.
AAGGCGAA: the “PBM E-score” value was -0.1.
As for ATTAAAAA, the figure is 0.0273; as for AGGCAACC, -0.271; as for GTCCGGCA, -0.229.
Turning to GTCACGGA, the “PBM E-score” value is -0.283.
Turning to CAGATTGG, the “PBM E-score” value was -0.303.
As for ATATGAAC, the “PBM E-score” value stood at 0.234.
Consider CCAGTGAC, for which the “PBM E-score” value was -0.217.
For ACCGGCAT, the “PBM E-score” value is -0.0195.
For CACAAATG, the “PBM E-score” value is -0.0189.
In the case of ACTAGACG, the “PBM E-score” value was 0.129.
GTACGGCA: the “PBM E-score” value was determined as 0.364.
Turning to GCGGACCC, the “PBM E-score” value is -0.0237.
In the case of CAACGGAA, the “PBM E-score” value amounted to 0.0204.
As for AAGAAGTA, the figure is 0.0759; as for AAGATACA, 0.0107; as for ATATGGGG, -0.188.
Take AGAGAGCG: the “PBM E-score” value was -0.138.
With CACCAAGC, the “PBM E-score” value was found to be 0.0027.
As for ATGGGGGC, the figure is -0.205.
For the sequence CAGTCCCC, the “PBM E-score” value was -0.306.
Turning to GGTCTGTA, the “PBM E-score” value turned out to be 0.0803.
Turning to TGGACCAA, the “PBM E-score” value was -0.238.
ATAGACAC: the “PBM E-score” value turned out to be 0.0447.
As to CCAACCGG, the “PBM E-score” value is -0.0322.
As for AGTTCCTC, the “PBM E-score” value was -0.161.
As for AAATCAGC, the figure is -0.0865; as for GAACAATC, -0.0705; as for CATGCAGG, -0.188.
As for CTTCGCCC, the “PBM E-score” value was -0.235.
As for AGTGATGC, the figure is -0.0793; as for GTTGAATA, 0.17.
With AGATACAC, the “PBM E-score” value was determined as 0.0793.
Regarding ACCGGGCT, the “PBM E-score” value came to 0.0294.
GCCGATCA: the “PBM E-score” value was -0.0833.
For GATTCGAA, the “PBM E-score” value was 0.0467.
ACTAATTA: the “PBM E-score” value is 0.00126.
Turning to CACCATCC, the “PBM E-score” value was -0.32.
Consider CATCACAC, for which the “PBM E-score” value worked out at 0.00102.

(Values after the supplement of paper PMC3334620.)
